Experimental data reported in PubChem BioAssay AID504832 (National Center for Advancing Translational Sciences (NCATS), 2011).
In all, about 310,000 compounds went through this assay and about 18,000 (5.8%) were called active. The inconclusive results got no clear call from the source; some entries with a clear call stand among them for comparison. Calls follow the shape of the dose curve; as a rule, active = well fitted inhibition curve with a large enough effect; inconclusive = small, poorly fitted or top-dose-only effect, or another doubt; inactive = no such curve, though single readings can be large or run the other way. No potency is given beside an inconclusive call; the fits are too rough.

Test: Primary qHTS for delayed death inhibitors of the malarial parasite plastid, 48 hour incubation
Conditions: P. falciparum luciferase growth in erythrocytes; series mostly up to 28.7 µM
In short: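 Erythrocytes infected with P. falciparum carrying an integrated firefly luciferase reporter (2% hematocrit, 0.1% parasitemia final) were exposed to compounds in RPMI 1640 with 0.5% Albumax at 37 C, 5% CO2. Growth inhibition was scored as reduced luminescence.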
Potency is read from the fitted curve at half-maximal effect; tags tell the direction and shape of the fitted curve.

Row | Compound | Potency
1 | Cc1ccc(-n2ncc3c(NCc4ccccn4)ncnc32)c(C)c1 | inconclusive [inhibitor, partial curve, poor fit]
2 | OCCC1CN(Cc2nc3ccccc3[nH]2)CCN1C1CCCC1 (configuration not stated) | inactive
3 | CN(Cc1ccccc1)C(=O)c1nc2ccccn2c1CNCCn1cccn1 | inconclusive [inhibitor, full curve, poor fit]
4 | O=C(C1CCC1)N1CCc2cc(S(=O)(=O)Nc3ccc4c(c3)OCO4)ccc21 | inconclusive [inhibitor, single point]
5 | COc1ccc(C2C(C#N)=C(/N=C/N3CCN(C)CC3)OC3=C2C(=O)CC(C)(C)C3)cc1OC (configuration not stated) | inconclusive [inhibitor, single point]
6 | COc1ccc(C(=O)c2c(-c3cccc(C)c3)oc3ccc(N4CCOCC4)cc23)cn1 | inconclusive [inhibitor, single point]
7 | COc1cccc(C(=O)Nc2nnc(S(=O)(=O)N3CCCC3)s2)c1 | inactive
8 | COCCNC(=S)NNc1cccc(C(=O)O)c1 | inactive
9 | COc1ccc(C(=O)NNC(=S)NC(=O)c2ccc(OC)cc2)cc1 | inactive
10 | O=[N+]([O-])c1ccccc1-c1cc(-c2ccccc2O)n[nH]1 | inactive
11 | CCOc1ccccc1CNC(=O)CCCn1ccc2cc(S(=O)(=O)N3CCCC3)ccc21 | inconclusive [inhibitor, partial curve, poor fit]
12 | CCN1C(=O)[C@H]2[C@@H](c3ccc(-c4ccc5c(c4)OCO5)c(OC)c3)N[C@@](CC(C)C)(C(=O)OC)[C@H]2C1=O | active: 6.57 µM
13 | CCCCCCCOC(=O)C1=C(C)Nc2ncnn2C1c1cccs1 (configuration not stated) | active: 10.4 µM
14 | CC1=Nc2cccc([N+](=O)[O-])c2NC(=O)C1 | inconclusive [inhibitor, single point]
15 | CCOc1ccc(C(=O)N2CCC3(CC2)NCCc2[nH]cnc23)cc1 | inconclusive [inhibitor, partial curve, poor fit]
16 | COc1cccc(C(c2nnnn2Cc2ccco2)N2CCN(Cc3ccccc3)CC2)c1OC (configuration not stated) | inconclusive [inhibitor, partial curve]
17 | Cc1ccc(C(c2nnnn2C2CCCCC2)N2CCc3ccccc32)cc1 (configuration not stated) | active: 11.7 µM
18 | O=c1[nH]nc(Cc2ccc(Cl)cc2)c2ccccc12 | inconclusive [inhibitor, partial curve, poor fit]
19 | CCN(CC)C(=O)CSc1n[nH]c(=S)n1N | inconclusive [inhibitor, partial curve]
20 | COc1ccc(OC)c(-c2nc3ccccc3nc2-c2ccccc2)c1 | inconclusive [inhibitor, partial curve, poor fit]
21 | CC(C)CCNC(=S)Nc1ccccc1F | inactive
22 | COc1ccc2nc(SCc3nc(N)nc(Nc4ccccc4)n3)[nH]c2c1 | inconclusive [inhibitor, single point]
23 | O=S(=O)(O)c1cccc(N=Nc2c(O)ccc3ccccc23)c1 | inconclusive [inhibitor, single point]
24 | c1ccc(-c2noc(C3CCCCC3)n2)nc1 | inactive

Row | Compound | Potency
25 | O=C(NCc1ccc(F)cc1)C1(c2cccs2)CCOCC1 | inactive
26 | CN(C)C(CNC(=O)c1cc(S(=O)(=O)N(C)c2ccccc2)ccc1Cl)c1ccccc1 (configuration not stated) | inconclusive [inhibitor, single point]
27 | COc1ccc(CCN(Cc2cc3cccc(C)c3[nH]c2=O)C(=O)N2CCCC2)cc1OC | active: 8.28 µM
28 | CN(CC(=O)Nc1ccc(Cl)c(C(F)(F)F)c1)C(=O)C1CCC1 | inconclusive [inhibitor, single point]
29 | CCn1c(/C=C2\C(=O)Nc3ccccc32)nc2ccccc2c1=O | inconclusive [inhibitor, single point]
30 | O=C1CC(N2CCSCC2)C(=O)N1c1cccc(Br)c1 (configuration not stated) | inconclusive [inhibitor, full curve, poor fit]
31 | CN(C)c1nc2c(c(=O)[nH]c(=O)n2C)n1CCCc1ccccc1 | inactive
32 | COc1cccc(CN2CC(C(=O)N3CCN(C(C)C)CC3)CCC2=O)c1 (configuration not stated) | inactive
33 | CC(c1ccon1)N(C)Cc1c(C(=O)N(C)Cc2ccccc2)nc2ccccn12 (configuration not stated) | inconclusive [inhibitor, partial curve]
34 | CCc1ccc(NC(=O)CC2C(=O)N(c3ccc(C)cc3)C(=O)N2C2CC2)cc1 (configuration not stated) | inconclusive [inhibitor, single point]
35 | O=C(Nc1nccs1)c1ccc(Cl)cc1[N+](=O)[O-] | inactive
36 | CC(=O)Nc1ccc(N2C(=O)CSC2c2cccc([N+](=O)[O-])c2)cc1 (configuration not stated) | inactive
37 | C[n+]1ccc(-c2ccccc2)c2ccccc21 | active: 1.04 µM
38 | Cc1ccccc1N1C(=O)c2sc3nc4c(c(=O)n3c2C1=O)CCC4 | inconclusive [inhibitor, single point]
39 | COc1cccc(CNC(=O)CN2C(=O)CSc3ccc(S(=O)(=O)N4CCCCC4)cc32)c1 | inconclusive [inhibitor, partial curve]
40 | Cc1ccc(N(C(=O)c2snc(C(N)=O)c2N)C(C(=O)NC2CCCC2)c2ccc(C)o2)cc1 (configuration not stated) | active: 10.4 µM
41 | O=C(OCc1nnc(-c2cccs2)o1)C1=NN(c2ccccc2)C(=O)CC1 | inactive
42 | CC(C)Cn1c(N)c(C(=O)COC(=O)c2cc(C3CC3)nc3ccccc23)c(=O)n(C)c1=O | active: 5.22 µM
43 | Cc1ccc(C(=O)NNC(=O)Cc2cccs2)cc1 | inactive
44 | CCOC(=O)c1c(NC(C)=O)sc(/C(C)=N/Nc2ccc(C(=O)O)cc2)c1C | inactive
45 | NC(=O)c1cc2ccccc2o/c1=N/NC(=O)c1cccs1 | inactive
46 | CCOC(=O)CC(NC(=O)C1c2ccccc2Oc2ccccc21)c1ccccc1Cl (configuration not stated) | inactive
47 | O=C1NC[C@H](CC2CCCCC2)N(CC2CCCCC2)C1=O | inconclusive [inhibitor, partial curve, poor fit]
48 | COc1ccccc1NC(=O)Nc1nc(CC(=O)NCc2ccccn2)cs1 | inactive

Row | Compound | Potency
49 | CCCCn1c(N)c(N(CCOC)C(=O)C2CCN(C(=O)c3ccccc3C)CC2)c(=O)[nH]c1=O | inconclusive [inhibitor, single point]
50 | O=C1C2C(c3cccc(/C=C/c4ccccc4)c3)CC=CC2C(c2ccc3ccccc3c2)N1Cc1ccccc1 (configuration not stated) | inconclusive [inhibitor, single point]
51 | COc1ccc(CCNC(=S)N2CCN(S(=O)(=O)c3cccc(F)c3)CC2)cc1 | inconclusive [inhibitor, single point]
52 | Clc1ccc(SCc2cc(-c3ccccc3)on2)cc1 | inactive
53 | N#CC(C#N)=c1ccc2c(c1)N1C3=C(CCCC3)CC3CCCCC31N=2 (configuration not stated) | inconclusive [inhibitor, single point]
54 | CCc1cc(C(c2ccccc2OC)N2CCOCC2)c(NC(=O)c2ccccc2)s1 (configuration not stated) | inconclusive [inhibitor, single point]
55 | CCCc1ncc(C(O)c2cccc(OC)c2)n1C (configuration not stated) | inactive
56 | O=C(N/N=C/c1ccccc1O)/C(=C/c1ccccc1)CCO | inconclusive [inhibitor, single point]
57 | COc1ccc(C(=O)C2CCCN(Cc3ccc(Sc4nncn4C)o3)C2)cc1F (configuration not stated) | inactive
58 | COCCCn1c(=O)c2ccccc2n(CC(=O)NC2CCCCC2)c1=O | inconclusive [inhibitor, partial curve, poor fit]
59 | O=C(NCc1ccccc1Cl)C1CCN(S(=O)(=O)c2ccc(N3CCCC3=O)cc2)CC1 | inconclusive [inhibitor, partial curve]
60 | CC(=O)N1CCN(c2ccccc2NC(=O)c2cc3ccccc3o2)CC1 | inconclusive [inhibitor, partial curve]
61 | CCCC/C(=N\NC(=O)c1ccc(Br)o1)c1ccccc1 | inconclusive [inhibitor, single point]
62 | Cc1ccc2c(c1)CCCN2CC(=O)Nc1cccc(S(=O)(=O)N2CCCC2)c1 | inconclusive [inhibitor, single point]
63 | Cc1cccc(Cn2c(C)nc3ccc([N+](=O)[O-])cc3c2=O)c1 | inactive
64 | Clc1cc2cccnc2c2ncccc12 | active: 11.7 µM
65 | CC1(C)Cc2c(C#N)c(OCC(=O)c3ccc(Cl)cc3)nc(-c3ccco3)c2CO1 | inconclusive [inhibitor, single point]
66 | CC1(OC(=O)C2CCCC2)C(=O)C=C2C=C(c3ccsc3)N(CCN3CCOCC3)C=C2C1=O (configuration not stated) | inconclusive [inhibitor, single point]
67 | O=C(CN1N=C(c2ccccc2)CCC1=O)NCc1cccs1 | inactive
68 | CSc1ncc(CN2CCc3c([nH]c4ccccc34)C2c2cccc(C)n2)cn1 (configuration not stated) | inconclusive [inhibitor, partial curve]
69 | O=C(Nc1nc2c(s1)CCCC2)c1cccc(S(=O)(=O)N2CCCc3ccccc32)c1 | active: 9.28 µM
70 | CCCC(=O)NC(=S)Nc1ccc(N2CCN(C(=O)c3cccs3)CC2)cc1 | inconclusive [inhibitor, partial curve, poor fit]
71 | Cc1nc(SCCOc2ccccc2F)[nH]c(=O)c1Cc1ccccc1 | inactive
72 | CCCc1cc(=O)[nH]c(-n2[nH]c3c(c2=O)CCCC3)n1 | inconclusive [inhibitor, partial curve]
